According to a collection of fitness landscapes (doi:10.1016/j.celrep.2020.107928):
In all, about 81,000 sequences were measured (“one-hybrid fitness for binding NBS DNA”: median about -0.1, highest 2% from about 0.36 on). Some of the results follow.

B1: Caulobacter ParB omega fusion; a variant is named by its letters at X, in order, B8GW30 (parent)
chain: MESVVVGEPGMSEGRRGLGRGLSALLGEVDAAPAQAPGEQLGGSREAPIEILQRNPDQPRRTFREEDLEDLSNSIREKGVLQPILVRPSPDTAGEYQIVAGERAWRAAQRAGLKTVPIMVRELDDLAVLEIGIIENVQRADLNVLEEALSYKVLMEKFERTQENIAQTIGKSXSHVANXMRLLXLPDEVQSYLVSGELTAXHARAIAAAADPVALAKQIIEGGLSVRETEALARKAPNLSAGKSKGGRPPRVKDTDTQALESDLSSVLGLDVSIDHRGSTGTLTITYATLEQLDDLCNRLTRGI

Variants of: B1
Experiment: one-hybrid fitness for binding NBS DNA (the Noc-binding site; scaled: cognate 1, non-cognate 0); higher = stronger binding
Conditions: with NBS DNA site
How it was run: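 Caulobacter ParB libraries with four specificity codons randomised were screened by bacterial one-hybrid selection in the E. coli USO strain, using a HIS3 reporter whose site lies 19 bp from the promoter. Selection ran for 48 hours at 37°C on M9 lacking histidine, with 0.1 mM IPTG and 5 mM 3-AT. Plasmids were Illumina-sequenced before and after selection, three replicate libraries were pooled, and variants with under 10 reads were dropped. Fitness is the log change in each variant's read ratio to wild type, rescaled against the cognate and non-cognate sites.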

| Variant | one-hybrid fitness for binding NBS DNA |
| --- | --- |
| GFTD | ≤ 0.2 |
| GIMA | ≤ 0.2 |
| TSQE | ≤ 0.2 |
| YCNA | ≤ 0.2 |
| RQLQ | ≤ 0.2 |
| PCPY | ≤ 0.2 |
| DPKC | ≤ 0.2 |
| DFRC | ≤ 0.2 |
| RRNS | 0.678 |
| AYYT | ≤ 0.2 |
| YVPM | ≤ 0.2 |
| NAMS | ≤ 0.2 |
| PAAD | ≤ 0.2 |
| RYWN | ≤ 0.2 |
| WAVS | ≤ 0.2 |
| TESA | ≤ 0.2 |
| GIDK | ≤ 0.2 |
| NNSK | ≤ 0.2 |
| LYNS | ≤ 0.2 |
| PTTE | ≤ 0.2 |
| AIPV | ≤ 0.2 |
| AVNF | ≤ 0.2 |
| ADDQ | ≤ 0.2 |
| NMRY | ≤ 0.2 |

| Variant | one-hybrid fitness for binding NBS DNA |
| --- | --- |
| FSRY | ≤ 0.2 |
| NKCR | ≤ 0.2 |
| AAMC | ≤ 0.2 |
| IMLS | ≤ 0.2 |
| GNDH | ≤ 0.2 |
| LTQR | ≤ 0.2 |
| AVGI | ≤ 0.2 |
| FWRV | ≤ 0.2 |
| PHPS | ≤ 0.2 |
| KMVR | ≤ 0.2 |
| YAKI | ≤ 0.2 |
| RRWK | 0.249 |
| LKLS | ≤ 0.2 |
| STWQ | ≤ 0.2 |
| AAKI | ≤ 0.2 |
| TYAV | ≤ 0.2 |
| TLRF | ≤ 0.2 |
| QQTV | ≤ 0.2 |
| NQPR | ≤ 0.2 |
| RAQM | ≤ 0.2 |
| IHVS | ≤ 0.2 |
| AFVL | ≤ 0.2 |
| RTDQ | ≤ 0.2 |
| IGHL | ≤ 0.2 |

| Variant | one-hybrid fitness for binding NBS DNA |
| --- | --- |
| LINS | ≤ 0.2 |
| AVLT | ≤ 0.2 |
| QKKS | 0.662 |
| MRVC | ≤ 0.2 |
| CKRS | ≤ 0.2 |
| HLNC | ≤ 0.2 |
| PADI | ≤ 0.2 |
| ARRI | ≤ 0.2 |
| PFLM | ≤ 0.2 |
| PCHL | ≤ 0.2 |
| HAYN | ≤ 0.2 |
| NKIY | ≤ 0.2 |
| LNFM | ≤ 0.2 |
| AGDS | ≤ 0.2 |
| CSAM | ≤ 0.2 |
| EINR | ≤ 0.2 |
| NNET | ≤ 0.2 |
| TCPE | ≤ 0.2 |
| TCNR | ≤ 0.2 |
| FTHW | ≤ 0.2 |
| RYWE | ≤ 0.2 |
| NSLY | ≤ 0.2 |
| CSLC | ≤ 0.2 |
| MHPW | ≤ 0.2 |

| Variant | one-hybrid fitness for binding NBS DNA |
| --- | --- |
| VKVS | ≤ 0.2 |
| RYIY | ≤ 0.2 |
| SSLG | ≤ 0.2 |
| GIIW | ≤ 0.2 |
| PKCV | ≤ 0.2 |
| TVTV | ≤ 0.2 |
| KHKG | ≤ 0.2 |
| SWYE | ≤ 0.2 |
| IHNR | ≤ 0.2 |
| VIRD | ≤ 0.2 |
| SIHT | ≤ 0.2 |
| RPWI | ≤ 0.2 |
| TEKG | ≤ 0.2 |
| FPPH | ≤ 0.2 |
| RHCQ | ≤ 0.2 |
| QIFR | 0.301 |
| RHFW | ≤ 0.2 |
| TEGS | ≤ 0.2 |
| CNRM | ≤ 0.2 |
| TSAF | ≤ 0.2 |
| SMPA | ≤ 0.2 |
| KTSG | ≤ 0.2 |
| DAHL | ≤ 0.2 |
| ITFR | ≤ 0.2 |

| Variant | one-hybrid fitness for binding NBS DNA |
| --- | --- |
| KFYS | ≤ 0.2 |
| GDNC | ≤ 0.2 |
| GRRT | ≤ 0.2 |
| DDVF | ≤ 0.2 |
| TDYG | ≤ 0.2 |
| DVFV | ≤ 0.2 |
| QYHW | ≤ 0.2 |
| RRLK | ≤ 0.2 |
| GFYT | ≤ 0.2 |
| HGDC | ≤ 0.2 |
| CSWL | ≤ 0.2 |
| HYRL | ≤ 0.2 |
| PLNS | ≤ 0.2 |
| CIHG | ≤ 0.2 |
| WPYG | ≤ 0.2 |
| KKNR | 0.34 |
| GHTP | ≤ 0.2 |
| DLER | ≤ 0.2 |
| QKLW | ≤ 0.2 |
| LMAE | ≤ 0.2 |
| DRHS | ≤ 0.2 |
| HSKG | ≤ 0.2 |
| TVRY | ≤ 0.2 |
| IDTT | ≤ 0.2 |

| Variant | one-hybrid fitness for binding NBS DNA |
| --- | --- |
| VRMC | ≤ 0.2 |
| EPIT | ≤ 0.2 |
| AVHG | ≤ 0.2 |
| RPTH | ≤ 0.2 |
| WGPC | ≤ 0.2 |
| YSQL | ≤ 0.2 |
| KMRC | ≤ 0.2 |
| VTQL | ≤ 0.2 |
| AKDQ | ≤ 0.2 |
| VAWG | ≤ 0.2 |
| ACTY | ≤ 0.2 |
| ASAR | ≤ 0.2 |
| QYGV | ≤ 0.2 |
| TVIA | ≤ 0.2 |
| NESF | ≤ 0.2 |
| EPYR | ≤ 0.2 |
| ARDD | ≤ 0.2 |
| GIPG | ≤ 0.2 |
| RSTY | ≤ 0.2 |
| SLVD | ≤ 0.2 |
| RQND | ≤ 0.2 |
| EAFM | ≤ 0.2 |
| QCRS | 0.748 |
| CGDW | ≤ 0.2 |

| Variant | one-hybrid fitness for binding NBS DNA |
| --- | --- |
| RYDS | ≤ 0.2 |
| VSIS | ≤ 0.2 |
| PWMR | ≤ 0.2 |
| RWYI | ≤ 0.2 |
| YYVR | ≤ 0.2 |
| WAYC | ≤ 0.2 |
| VRGA | ≤ 0.2 |
| SVKY | ≤ 0.2 |
| ACCM | ≤ 0.2 |
| HYAI | ≤ 0.2 |
| HWRK | ≤ 0.2 |
| RSNQ | ≤ 0.2 |
| QIVD | ≤ 0.2 |
| CMST | ≤ 0.2 |
| AVCL | ≤ 0.2 |
| YSTP | ≤ 0.2 |
| CKDT | ≤ 0.2 |
| SEYQ | ≤ 0.2 |
| ADNF | ≤ 0.2 |
| HRDT | ≤ 0.2 |
| LREV | ≤ 0.2 |
| RNVE | ≤ 0.2 |
| ESVG | ≤ 0.2 |
| NHSM | ≤ 0.2 |

| Variant | one-hybrid fitness for binding NBS DNA |
| --- | --- |
| QCYA | 0.328 |
| TRQV | ≤ 0.2 |
| DNGV | ≤ 0.2 |
| TREI | ≤ 0.2 |
| RQMF | ≤ 0.2 |
| AYRL | ≤ 0.2 |
| LVLG | ≤ 0.2 |
| PFVS | ≤ 0.2 |
| VEET | ≤ 0.2 |
| LLVE | ≤ 0.2 |
| SFSW | ≤ 0.2 |
| DMQR | ≤ 0.2 |
| ENHM | ≤ 0.2 |
| LRHN | ≤ 0.2 |
| PHLV | ≤ 0.2 |
| IRRL | ≤ 0.2 |
| PQKH | ≤ 0.2 |
| LQLC | ≤ 0.2 |
| IIPG | ≤ 0.2 |
| SPPW | ≤ 0.2 |
| EIVS | ≤ 0.2 |
| RRHQ | 0.293 |
| ENNG | ≤ 0.2 |
| RPSG | ≤ 0.2 |

| Variant | one-hybrid fitness for binding NBS DNA |
| --- | --- |
| LPTH | ≤ 0.2 |
| FRVV | ≤ 0.2 |
| NSST | ≤ 0.2 |
| RWRD | ≤ 0.2 |
| QCDL | ≤ 0.2 |
| LGVF | ≤ 0.2 |
| MQMT | ≤ 0.2 |
| ASNT | ≤ 0.2 |
| VPPN | ≤ 0.2 |
| LWHS | ≤ 0.2 |
| DTRA | ≤ 0.2 |
| AIED | ≤ 0.2 |
| SDIF | ≤ 0.2 |
| WSHC | ≤ 0.2 |
| IWPG | ≤ 0.2 |
| KVCI | ≤ 0.2 |
| YCRT | ≤ 0.2 |
| CTQC | ≤ 0.2 |
| RQVA | ≤ 0.2 |
| CKVC | ≤ 0.2 |
| NEGT | ≤ 0.2 |
| WLNL | ≤ 0.2 |
| PFAI | ≤ 0.2 |
| LEAI | ≤ 0.2 |

| Variant | one-hybrid fitness for binding NBS DNA |
| --- | --- |
| MYHC | ≤ 0.2 |
| GPNN | ≤ 0.2 |
| TTAY | ≤ 0.2 |
| DINT | ≤ 0.2 |
| LGVH | ≤ 0.2 |
| GMMA | ≤ 0.2 |
| TEGK | ≤ 0.2 |
| WCWG | ≤ 0.2 |
| RKAH | 0.322 |
| PVAI | ≤ 0.2 |
| PIDT | ≤ 0.2 |
| RIHP | ≤ 0.2 |
| HSHC | ≤ 0.2 |
| IHRV | ≤ 0.2 |
| HNSW | ≤ 0.2 |
| GAYT | ≤ 0.2 |
| LHGG | ≤ 0.2 |
| MCRA | ≤ 0.2 |
| IINR | ≤ 0.2 |
| WLTC | ≤ 0.2 |
| YQHG | ≤ 0.2 |
| VLVP | ≤ 0.2 |
| RRNK | 0.274 |
| YRRE | ≤ 0.2 |

| Variant | one-hybrid fitness for binding NBS DNA |
| --- | --- |
| EANG | ≤ 0.2 |
| WLVR | ≤ 0.2 |
| TTSP | ≤ 0.2 |
| RNKR | 0.535 |
| FHLT | ≤ 0.2 |
| MSHT | ≤ 0.2 |
| RHQE | ≤ 0.2 |
| TWSD | ≤ 0.2 |
| VYWW | ≤ 0.2 |
| CTKT | ≤ 0.2 |
| PYEC | ≤ 0.2 |
| SFNS | ≤ 0.2 |
| EMEE | ≤ 0.2 |
| VAAG | ≤ 0.2 |
| PLQA | ≤ 0.2 |
| MACW | ≤ 0.2 |
| VKES | ≤ 0.2 |
| PSDV | ≤ 0.2 |
| LKRA | ≤ 0.2 |
| QCYS | 0.432 |
| RFHE | ≤ 0.2 |
| DVWA | ≤ 0.2 |
| YGVV | ≤ 0.2 |
| LKPK | ≤ 0.2 |

| Variant | one-hybrid fitness for binding NBS DNA |
| --- | --- |
| TYMS | ≤ 0.2 |
| LQIP | ≤ 0.2 |
| GTKH | ≤ 0.2 |
| PMGT | ≤ 0.2 |
| HSMA | ≤ 0.2 |
| MLSA | ≤ 0.2 |
| TGGG | ≤ 0.2 |
| PVNW | ≤ 0.2 |
| TGRR | ≤ 0.2 |
| LCGC | ≤ 0.2 |
| QSSG | ≤ 0.2 |
| ELPR | ≤ 0.2 |
| YERN | ≤ 0.2 |
| FTPQ | ≤ 0.2 |
| CGMV | ≤ 0.2 |
| SVNE | ≤ 0.2 |
| QTFC | ≤ 0.2 |
| GGPG | ≤ 0.2 |
| RELK | ≤ 0.2 |
| PKEQ | ≤ 0.2 |
| LPFC | ≤ 0.2 |
| PFRD | ≤ 0.2 |
| TRVC | ≤ 0.2 |
| QVPG | ≤ 0.2 |

| Variant | one-hybrid fitness for binding NBS DNA |
| --- | --- |
| ACTG | ≤ 0.2 |
| PQKS | ≤ 0.2 |
| DQGL | ≤ 0.2 |
| CCYF | ≤ 0.2 |
| QSPL | ≤ 0.2 |
| RFQK | ≤ 0.2 |
| SVRK | ≤ 0.2 |
| QKTC | ≤ 0.2 |
| PGIM | ≤ 0.2 |
| SPSY | ≤ 0.2 |
| RCLS | 0.396 |
| KRGP | ≤ 0.2 |
| GIDS | ≤ 0.2 |
| TRYY | ≤ 0.2 |
| HTSR | ≤ 0.2 |
| LILN | ≤ 0.2 |
| QSNC | ≤ 0.2 |
| NRIF | ≤ 0.2 |
